Source: PMC2213623 (The Journal of Cell Biology, 2008)

Biological target: pp32/PHAP-I (human (endogenous in HeLa), UniProt P39687 1-249)
Experiment: co-IP

UniProt P39687, sequence (P39687 whole entry): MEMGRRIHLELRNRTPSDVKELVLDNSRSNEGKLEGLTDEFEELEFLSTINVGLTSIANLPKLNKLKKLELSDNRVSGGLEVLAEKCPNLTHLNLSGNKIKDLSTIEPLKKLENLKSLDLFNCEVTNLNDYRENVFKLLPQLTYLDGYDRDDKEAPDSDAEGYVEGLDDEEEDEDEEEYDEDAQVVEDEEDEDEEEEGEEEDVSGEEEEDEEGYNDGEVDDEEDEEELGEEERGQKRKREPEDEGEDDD

fold change of association against GFP-wt-HuR: 4 fold
B1: GFP-HuRD226A (natural protein)
chain: not shown
